To fix the notation:
T1: UNK ZnF1-3 (human, UniProt Q9C0B0 31-174)
T1 sequence: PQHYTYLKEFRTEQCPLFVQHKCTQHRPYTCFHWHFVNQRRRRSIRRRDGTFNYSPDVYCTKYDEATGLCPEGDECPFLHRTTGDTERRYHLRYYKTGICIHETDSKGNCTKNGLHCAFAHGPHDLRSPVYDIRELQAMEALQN

B1: chr3:96579679:96579680:+_ENSMUSG00000028098_ENSMUST00000029740|mus_hu|motif|central (ssRNA)
RNA: GGGAGUUCUACAGUCCGACGAUCGUGGAGGUCUUGCUCCCCAGAAGUCAGUGUGAGUCUGGUGACCCCUUUCAUUGGCUCGGUUAUCUUGGUCCAGUGGACUGCUACUUAGAAAGGGUCUAAAAUCUUGAAAAAACAUCGUGUCAACAGAGGAUUGAGCAUCA
B2: chr18:9122563:9122564:+_ENSG00000178127_ENST00000318388|hu_mus|FALSE|FALSE (ssRNA)
RNA: GGGAGUUCUACAGUCCGACGAUCGACCUGGAUAUGGUACUUCCCAACUGGCUUUCGAUUAUACAUUGUAUAAAAAGUUGCUACUUCAUAUACUCUCAUUGGAGGUACUUGUAAAACUUCAGCCACCUUGUUCAUAGCGGAGAUCAACAGAGGAUUGAGCAUCA
B3: chr13:22070289:22070290:-_ENSG00000165487_ENST00000382374|hu_mus|motif|central (ssRNA)
RNA: GGGAGUUCUACAGUCCGACGAUCAGCAAAGUCUUCCAAAUGCGUUGUAAAAUGGCAAAAGGACUUGAACUCAUCCAAACGGAUGCUCUCUCCUACUGACAACUUUUCUCUCACGUUUCUCCAGUAAAUAUCUUUAUUUUCAGUCAACAGAGGAUUGAGCAUCA
B4: chr4:148551591:148551592:-_ENSMUSG00000063077_ENSMUST00000060537|mus_hu|mus_mus_mus_hu_False|18_28 (ssRNA)
RNA: GGGAGUUCUACAGUCCGACGAUCACCUGACAAAAUUAAAUAUCCCUGUAAAUUAGACAAUAAGCAGCAGGCAACAAAGUCUUUGCUUUGGAAUAUGUGCCAGGAAAAAUCAUGUUUUAGACCCCAAUCAAGAGACAGUUCACACAACAGAGGAUUGAGCAUCA
B5: 98613764_98613884_684_3pUTR_ENSMUSG00000031310_ENSMUST00000121520|mouse|control|control (ssRNA)
RNA: GGGAGUUCUACAGUCCGACGAUCAGCCCCUUCUCCUUGUAGCUAAGGGGGGUAUCUCCUCUUCAAUAUGAGGAGACUCCAGGAUUAUUGGAGAAUCUGGAGCCAAAGGUUCUAGUAGCCCCUCAGGUGAAGGGGGACUAGCCCCAACAGAGGAUUGAGCAUCA
B6: chr3:197553776:197553777:+_ENSG00000186001_ENST00000438796|hu_hu|motif|central (ssRNA)
RNA: GGGAGUUCUACAGUCCGACGAUCGCAUGAGAAGUCUAACCGUAUCAAAGGCAACUCCGCCAGCUCUUCAGGCAAAUGUACGGGGUGAUUUCUUCUUACAUUAAGGUCUCUCAAGGCCUCCAGGUUACCAAUUUGGGAAGGUAUCAACAGAGGAUUGAGCAUCA
B7: 9437880_9438000_2913_3pUTR_ENSMUSG00000040209_ENSMUST00000041124|mouse|control|control (ssRNA)
RNA: GGGAGUUCUACAGUCCGACGAUCCCAGUCUGGAGUUUUCUACCUGGGCGGGGUUGGAGAGCAGAAUGCUAACCCAGAGUCCUGGCUAUGGUCUUGGCAGAACCAAGCAGGACACACUAUCCAGGCUGCAGUGUGUGUGAUAUCCAACAGAGGAUUGAGCAUCA
B8: chr12:76570751:76570752:-_ENSMUSG00000021051_ENSMUST00000021447|perfect_dup|motif|central (ssRNA)
RNA: GGGAGUUCUACAGUCCGACGAUCUGUUUCAUAAACAAACCUUAGAAAAAUAUUGUUAAUUUGUUUUCGGAUAAAUGCUCGGAGCCCGAGAAACUUGCCAUAAAUCCUGUGCAAGACUGUUUUUAAAUAGUCCCGUUCUCGAGGCAACAGAGGAUUGAGCAUCA
B9: 28350707_28356662_537_CDS_ENSMUSG00000049643_ENSMUST00000067386|mouse|control|control (ssRNA)
RNA: GGGAGUUCUACAGUCCGACGAUCGGUGCUGUUGUCUGACCGCCGUGUGGGGGUAUGGGGUGGAGAGUCAUGGUUCAGGCUGUUGGCAAUCAUUCGAGAAGCGGCACUAGAAGCGCCUCGGCGAAGCUCACCCUGGAGCGGGCUCAACAGAGGAUUGAGCAUCA
B10: chr17:85413340:85413341:+_ENSMUSG00000061130_ENSMUST00000080217|mus_hu|motif|central (ssRNA)
RNA: GGGAGUUCUACAGUCCGACGAUCUCAAUUUUACACUAUCUCAUAAAGGUGUAUGCAAAGGCCUUUUUAAAAAACAAGGCGGUCUGAAUAUAAUAAAACUAGUUUUCCAAGAUUCAAAUAACAAAACAGUUAUAUAAAUGCAUACAACAGAGGAUUGAGCAUCA
B11: chr19:36145531:36145532:+_ENSG00000126267_ENST00000246554|hu_hu|FALSE|FALSE (ssRNA)
RNA: GGGAGUUCUACAGUCCGACGAUCAUCCCAGUCUGUGACCCAGGAUGUGGGGCAGAGGGACUGGUACACACGCUGGUACCAUUCGCACACAGAGAUAUCGCCUCCUUUAGCGGUCAUUGCCUUCUGACAGCGGUGGAAGUCCAGCAACAGAGGAUUGAGCAUCA
B12: 27589336_27589456_4307_3pUTR_ENSG00000108256_ENST00000225388|human|control|control (ssRNA)
RNA: GGGAGUUCUACAGUCCGACGAUCAACCUGUAAAACAAACUGGAGCCUUUUUUCCCUUUAAUCAACCUUAUAUGUCUUUUUUUUUAACUUUUUGAAAAUUUUUAUUUAAAAAAACACAAAAACACAGACUUUUUUCACUUCAGUCAACAGAGGAUUGAGCAUCA
B13: chr3:63791606:63791607:+_ENSMUSG00000027823_ENSMUST00000029405|mus_mus|FALSE|FALSE (ssRNA)
RNA: GGGAGUUCUACAGUCCGACGAUCAAGUAAAACAAUUUCUUCCUUCUGCAGGCCCCUGAAUAAUGAACACGUAUUAUCCAUACUAAUGUUGAAAACUCCAUCCUCUCUAACACUUUUUUUAUGCACAGUGCCUCCAAAGACUUUCAACAGAGGAUUGAGCAUCA
B14: chr14:62207481:62207482:+_ENSG00000100644_ENST00000337138|hu_mus|FALSE|FALSE (ssRNA)
RNA: GGGAGUUCUACAGUCCGACGAUCGGAACGUAACUGGAAAUCAUCAUCCAUUGGGAUAUAGGGAGCCAGCAUCUCCAAAUCUAAAUCAGUGUCCUGAGUUGAAAAUGGAUUCUUUGCCUCUGUGUCUUCAGCAAACAGUUUUUCCAACAGAGGAUUGAGCAUCA
B15: 31094576_31094696_1819_3pUTR_ENSMUSG00000029168_ENSMUST00000114729|mouse|control|control (ssRNA)
RNA: GGGAGUUCUACAGUCCGACGAUCUCUCUCUGUACCAGCUUCUUAUAGACAAUGUCUGGGAAAGACCGCAGGGGACAGAACUUGCCAGUGCCCUCUGCACACAUGAAGACGCCGUUCUCAUACACGACUCGUCCCCGGCUGAUGCAACAGAGGAUUGAGCAUCA
B16: 32956884_32975425_4088_CDS_ENSG00000060749_ENST00000399302|human|control|control (ssRNA)
RNA: GGGAGUUCUACAGUCCGACGAUCAGUAGUUGCCACCUGUAGGGCUUCUGUUUUCUUCUUUUUAUCAGAAGUAGCAUCCAAAGUAGUUAAGGGAGUAGAGACGCUUUUAUAAGCAUCUUGACUAUAUCCAGGAUCAUCUUCAUCCAACAGAGGAUUGAGCAUCA
B17: chr2:175006660:175006661:-_ENSG00000138430_ENST00000344357|hu_hu|FALSE|FALSE (ssRNA)
RNA: GGGAGUUCUACAGUCCGACGAUCUAUAAUGGGCCCAAUCAUUUCCUCAUCUUUAAGCUGAAGCUCUUCAUGUAUUAUUUCUAUAUCUCGAAUAGGAUCUACACUUCCUUCAACGUGCGUGAUAUCAUCAUCUUCAAAAGCACGCAACAGAGGAUUGAGCAUCA
B18: chr2:115689366:115689367:-_ENSMUSG00000027210_ENSMUST00000074285|mus_mus|motif|central (ssRNA)
RNA: GGGAGUUCUACAGUCCGACGAUCUCUUUGAAGAACAGUCCCCCAAAAUCAUAAUAAGAAUUGGCUUAUGAAGCACAAACGGUAAAGAUCUGUUUGAAACUAAAGGACACAUGGACGGGGGGAACAAAGGCCGGGCAUGAAAACCAACAGAGGAUUGAGCAUCA
B19: chr1:225611761:225611762:-_ENSG00000143815_ENST00000272163|hu_mus|hu_hu_hu_mus_True|28_48 (ssRNA)
RNA: GGGAGUUCUACAGUCCGACGAUCCCAGGCCAUCGGCCUCUGACCACUUCACCCUCAACAAACUUCCUACUUGGCAUUUUCUAAAAUUAACCUGCGCGCGCUCCGGCCGGUGACACGGCCACUCCAGGACAGUCACCAGCAGCCCAACAGAGGAUUGAGCAUCA
B20: 10090341_10099430_716_CDS_ENSG00000071127_ENST00000499869|human|control|control (ssRNA)
RNA: GGGAGUUCUACAGUCCGACGAUCACAGUUGACAAAGCGGCUGUGGUCGCCAAUUGUGAACUUGAACUUGAAUGGGGGUCCCUCAAAGAAUGCCGCGCAGUUAUCAUCGCUUCCCGUGGCCAGCCGGUAUGGCCGGCUCUGCUUCAACAGAGGAUUGAGCAUCA
B21: chr18:46858332:46858333:-_ENSG00000141627_ENST00000269445|hu_mus|FALSE|FALSE (ssRNA)
RNA: GGGAGUUCUACAGUCCGACGAUCCGACUGCUGAGGGAAGACAUGGGUUCCGGGCGGAGGUGGCUUUUCUUGUCUGAUAAAGUUAUACAAUAAGGUUUUCACAAGUUUACUGGUGUAGGGAAGACAUGGGCCUUGCAUCAGGUACAACAGAGGAUUGAGCAUCA
B22: chr4:175231952:175231953:+_ENSG00000164118_ENST00000503780|hu_hu|FALSE|FALSE (ssRNA)
RNA: GGGAGUUCUACAGUCCGACGAUCAUUCAGAAGGUCCAUGUCACUACAAGAAGCGUAGUCUUCACUAACUUCAUUAAACUCUAUAAAUUCAUCAUUCUUUUUAGACAAAAGCAUUUCUGUUUCAAGAAGAGUGACACGACUAAGCAACAGAGGAUUGAGCAUCA

Results on 22 molecules are retold here after publication PMC12136788.

This is one part of the list.

In the assay the target is T1, UNK ZnF1-3. In words: nsRBNS (natural sequence RNA bind-n-seq); RBNS binding buffer (assumed for nsRBNS): 25 mM Tris pH 7.5, 150 mM KCl, 3 mM MgCl2, 0.01% Triton X-100, 500 ug/ml BSA, 20 U/ml SUPERase-In, 4 C; UNK is unkempt and MSI1 is Musashi-1; names of the RNAs are library labels; protein concentration not given here; high values mean tight binding.
The molecule B1 gave a binding signal of 0.687 enrichment R. B2 registered a binding signal of 0.856 enrichment R. In the case of B3 it was 1.37 enrichment R; in that of B4, 1.46 enrichment R; in that of B5, 0.771 enrichment R.

Molecule B6 returned a binding signal of 0.749 enrichment R.

As for B7, the binding signal is 0.986 enrichment R. In turn, B8 showed a binding signal of 1.29 enrichment R. Consider B9, for which the binding signal was 1.19 enrichment R.

B10 returned a binding signal of 0.894 enrichment R. In the case of B11 it was 0.897 enrichment R. In the case of B12 it was 1.24 enrichment R.

Take B13: the binding signal amounted to 1.3 enrichment R. For B14 the value was 1.4 enrichment R; for B15, 0.843 enrichment R; for B16, 0.863 enrichment R. As to B17, the binding signal stood at 1.18 enrichment R.

In the case of B18, the binding signal worked out at 2.33 enrichment R.

For B19, the binding signal was 1.15 enrichment R. B20 gave a binding signal of 0.514 enrichment R. Molecule B21 displayed a binding signal of 1.35 enrichment R.

On to B22, for which the binding signal is 0.704 enrichment R.
